Screen size: about 50,000 compounds; about 800 (1.6%) showed an effect of 50% or more. The list shows a part of the results.

The assay addresses Bcl-2-like protein 10 (Homo sapiens) (UniProt Q9HD36). Description: TR3 peptide-Bcl-B binding displacers, biochemical primary FP assay, phenotype converters (AID 1240).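 Also: 0% = Bcl-B with tracer peptide and DMSO and 100% = tracer peptide lacking Bcl-B.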 The conditions noted are these: GST-Bcl-B / FITC-TR3 peptide fluorescence polarization; stronger effect = higher value; compound at 3.75 mg/L. For orientation: In fluorescence polarisation assays a small probe gives low polarisation when free and higher when bound to something large.
Sequence of UniProt Q9HD36 (Q9HD36 whole entry, looked up): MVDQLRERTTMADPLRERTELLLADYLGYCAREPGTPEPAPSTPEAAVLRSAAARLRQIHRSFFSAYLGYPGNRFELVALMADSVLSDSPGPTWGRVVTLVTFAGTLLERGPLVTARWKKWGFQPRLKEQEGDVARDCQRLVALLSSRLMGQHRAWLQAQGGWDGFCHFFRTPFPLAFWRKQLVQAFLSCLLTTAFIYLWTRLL
Take `CCCCC(=O)Nc1ncc2c(n1)CC(C)(C)CC2=O`: the displacement is 1%.

Consider `COc1ccccc1CN1CCN(Cc2c[nH]c3ccccc23)CC1`, for which the displacement was -4.6%.

Regarding `CCOC(=O)C1CCN(C(=O)COc2ccc(C)cc2C)CC1`, the displacement came out at 4.2%.

As for `O=C1NC(=S)N/C1=C\c1ccc(Oc2ccc([N+](=O)[O-])cn2)cc1`, the displacement amounted to 101%.

As to `CC(C)C(=O)N1c2ccccc2C(N(C(=O)c2ccc(F)cc2)c2ccccc2)CC1C` (stereo not drawn), the displacement was 16.4%.

Take `CCOC(=O)c1c(NC(=O)C(C)Oc2ccc(Cl)cc2Cl)sc(C(N)=O)c1C` (stereo not drawn): the displacement was -1.8%.

As to `CN(C(=O)c1ccc(Br)cc1)c1ccccc1`, the displacement is -8%.

As to `Cc1ccc(-c2csc(NC(=O)CC(C)C)n2)c(C)c1`, the displacement is -6.6%.

Turning to `COc1cc(NC(=O)c2cc(C(F)(F)F)cc(C(F)(F)F)c2)c(OC)cc1NC(C)=O`, the displacement is -0.1%.

`CCOc1ccc(-c2nnc(-c3ccc4c(c3)OCO4)o2)cc1`: the displacement was -2.3%.

Consider `O=S(=O)(Nc1ccc(Br)cn1)c1ccccc1`, for which the displacement was 9.5%.

As to `Cc1cc(C)c(C(=O)c2ccc(C(N)=O)cc2)c(C)c1`, the displacement came out at 6.5%.

For `O=C(Nc1nc(-c2ccc(F)cc2)cs1)c1ccc([N+](=O)[O-])cc1Cl`, the displacement is -2.8%.

Regarding `Cc1ccc(-c2nc3cc(Cl)ccc3o2)cc1NC(=O)c1cccs1`, the displacement stood at 2.3%.

For `Cc1ccc(/C=C(/C#N)c2nc3ccc(C)cc3[nH]2)cc1`, the displacement amounted to 4.5%.

On to `CCOC(=O)N(Cc1ccccc1)C(C(=O)O)C(C(=O)O)N(Cc1ccccc1)C(=O)OCC` (stereo not drawn), for which the displacement was 6.3%.

As for `Cc1ccc(N(CC(=O)Nc2ccccc2F)S(=O)(=O)c2ccc(F)cc2)cc1`, the displacement is -34%.

As for `COc1ccc(NS(=O)(=O)c2ccc(C)cc2)cc1[N+](=O)[O-]`, the displacement is -1.5%.

For the molecule `O=C(COc1ccc2ccccc2c1)NCCCN1CCOCC1`, the displacement is 0.9%.

With `CCc1ccc(/C=C2\C(=O)N(c3ccc(Cl)c(C(=O)O)c3)N=C2C)cc1`, the displacement was 3.1%.

On to `COCCNC(=O)c1nn2c(C(F)(F)F)cc(-c3ccc(OC)c(OC)c3)nc2c1Cl`, for which the displacement came to 155%.

As for `O=C(O)COc1ccccc1/C=C1/SC(=S)N(NC(=O)c2ccc(Cl)cc2)C1=O`, the displacement stood at 10.7%.

`CCOC(=O)c1c(NC(=O)c2ccc(Cl)cc2Cl)sc(C)c1C`: the displacement is 6.1%.

With `COc1ccc(C2=C/C(=C\c3ccc(OC(C)=O)cc3)C(=O)O2)cc1`, the displacement amounted to 110%.

For `O=C(NC(c1ccccc1)c1ccccc1)C(Sc1ccccc1)c1ccccc1` (stereo not drawn), the displacement was determined as 18.5%.

As to `COc1ccc(N2C(=O)NC(=O)/C(=C/c3cc(Br)c(OC)c(OC)c3)C2=O)cc1`, the displacement was 11.6%.

On to `C/C(=C1/SC(N2CCCC2)=NC1=O)c1ccc(Cl)cc1`, for which the displacement was -11.2%.

With `COc1cc(NC(=O)c2cc3n(n2)C(C(F)(F)F)CC(c2ccc(Br)cc2)N3)cc([N+](=O)[O-])c1` (stereo not drawn), the displacement was determined as 3.8%.

For `Cc1ccc(N2C(=O)C3C(C2=O)C2(C)C(=O)C3(C)C(c3ccccc3)=C2c2ccccc2)cc1Cl` (stereo not drawn), the displacement was -1.1%.

As for `CCOC1CC(c2ccccc2)=NN1c1ccccc1` (stereo not drawn), the displacement is -14.3%.

Consider `COc1ccc(OC)c(N=Cc2c(O)n(-c3cc(OC)ccc3OC)c(=O)[nH]c2=O)c1`, for which the displacement came to 2.9%.

With `O=C(NC(C(=O)c1ccccc1)N1CCOCC1)c1ccco1` (stereo not drawn), the displacement stood at 16.5%.

`N/C(=N\OC(=O)COc1ccccc1)c1ccc(Br)cc1`: the displacement came to 13.5%.

In the case of `CSC(=O)NC12CC3CC(CC(C)(C3)C1)C2`, the displacement was -6.3%.

On to `CCOC(=O)C1=C(O)/C(=C\c2ccc(Cl)cc2Cl)N=C1C`, for which the displacement was 12.1%.

With `COc1cc(/C=C2/C(=O)NC(=O)N(c3ccc(C(C)C)cc3)C2=O)ccc1O`, the displacement amounted to 5.5%.

With `CC(C)(C)NC(=O)c1cc(N)cc(N)c1`, the displacement stood at 39.1%.

For `Cc1cc([N+](=O)[O-])ccc1NC(=O)CCCOc1ccc(Cl)cc1Cl`, the displacement was -13.3%.

As to `COc1ccccc1OCCCOc1ccc(Cl)c(C)c1`, the displacement was found to be 16.9%.

Regarding `COc1cc(/C=C2\SC(=S)N(Cc3ccccc3)C2=O)ccc1OC(=O)c1ccc(Cl)cc1`, the displacement was -0.6%.

With `Nc1ccc(C(=O)Nc2cccc(O)c2)cc1`, the displacement came to 11.4%.

For the molecule `O=C(Oc1cccc2ccccc12)c1cccc([N+](=O)[O-])c1`, the displacement came out at 6.1%.

With `COc1cc(/C=C2\C(=O)NC(=O)N(c3ccc(C)c(C)c3)C2=O)cc(Cl)c1O`, the displacement was 2.3%.

On to `CCn1c2ccccc2c2cc(NC(=O)c3ccc(OC)cc3OC)ccc21`, for which the displacement was -3.5%.

Turning to `O=C1N/C(=N\N=C\c2ccc(O)cc2)SC1c1ccccc1` (stereo not drawn), the displacement is -6.8%.

As for `CC(NC(=O)CN(c1ccccc1)S(=O)(=O)c1ccccc1[N+](=O)[O-])c1ccccc1` (stereo not drawn), the displacement is 14.2%.

Regarding `CCOC(=O)c1c(NC(=O)c2ccncc2)sc(C(C)=O)c1C`, the displacement is -6.5%.

Turning to `Cc1ccc([N+](=O)[O-])cc1Cc1ccc(Cl)cc1`, the displacement turned out to be 8.5%.

As to `O=C(NCc1cccs1)c1sc2cc(F)ccc2c1Cl`, the displacement is -3.8%.

For `COc1ccc(C(=O)/C=C\Nc2ccc([N+](=O)[O-])cc2)cc1`, the displacement is -57.2%.

Regarding `O=C1C(=C/C=C/c2ccccc2)C(=O)c2ccccc21`, the displacement was found to be 75%.

For `CCOC(=O)c1c(NC(NC(=O)c2ccco2)C(=O)c2ccccc2)sc2c1CCCC2` (stereo not drawn), the displacement turned out to be 4.5%.

Take `O=C1C2CC=C(Cl)CC2C(=O)N1CNc1ccccc1-c1ccccc1` (stereo not drawn): the displacement turned out to be 2.3%.

In the case of `O=C1CC(NCCc2ccccc2)C(=O)N1c1ccc(F)cc1` (stereo not drawn), the displacement was 5.6%.

For the molecule `CC1=C(C#N)c2nc(N)c(C#N)c(C)c2/C1=C\c1ccc(-c2ccc(Cl)cc2)o1`, the displacement is -3.3%.

For `O=C(CN1CCOCC1)Nc1cc(C(F)(F)F)cc(NC(=O)CN2CCOCC2)c1Cl`, the displacement is -12.1%.

As for `COc1ccc(C(C2=C(O)CC(C)(C)CC2=O)C2C(=O)CC(C)(C)CC2=O)cc1OC` (stereo not drawn), the displacement worked out at 18.9%.

Turning to `CC(=O)NC1=NC(=O)/C(=C\c2ccc(C(C)C)cc2)S1`, the displacement was -10.2%.

Turning to `Cc1ccc(NC(=O)CSC(N)=O)cc1C`, the displacement was -40.7%.

Take `C=CCc1cccc2cc(C(=O)NCc3ccco3)c(=O)oc12`: the displacement was determined as 1.9%.

Consider `Cc1c(Cl)cccc1NC(=O)COc1ccc(Cl)cc1`, for which the displacement came out at 15.9%.

As to `Cc1ccc(NC(=O)Cc2nc3ccccc3n2CCC#N)cc1`, the displacement is -1.8%.

Turning to `O=C1C(Nc2ccccc2)=CC(c2cccc([N+](=O)[O-])c2)N1c1ccccc1` (stereo not drawn), the displacement was determined as 1.6%.

For the molecule `O=C(OCc1nc2c(ccc3ccccc32)[nH]1)C1CCCCC1`, the displacement was -1.2%.

For the molecule `CC(=O)NS(=O)(=O)c1ccc(NC(=O)Nc2ccc(Cl)c(Cl)c2)cc1`, the displacement was 3.4%.

In the case of `COc1cc([N+](=O)[O-])cc(C=C2C(=O)N(C)C(=O)N(C)C2=O)c1O`, the displacement is -2.5%.

As to `COc1ccccc1N1CCN(C2CC(=O)N(C)C2=O)CC1` (stereo not drawn), the displacement was -7.9%.

Consider `COc1ccc2c(c1)c1c3n2CCN(C(=S)Nc2ccccc2)C3CCC1` (stereo not drawn), for which the displacement was 6.7%.

Values taken from PubChem BioAssay AID1240 (Sanford-Burnham Center for Chemical Genomics, 2008).
